# Laboratory results as given in PubChem BioAssay AID488969 (Vanderbilt High Throughput Screening Facility, 2010).
# Over roughly 110,000 compounds, “z-score” has its median near -0.1; the highest 2% begin near 2. The list shows a part of the results. Active and inactive are the calls of the source.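 How the source made its calls: active means z-score in the third read window above 3 or below -3; inactive means the rest.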
# Biological target: Metabotropic glutamate receptor 8 (Rattus norvegicus) (UniProt P70579)
# Experiment: mGluR8 Gi/Go-coupled signaling modulation – cell-based, rat, thallium flux, HTS, primary screen (AID 488969)
# Details: HEK293 rat mGluR8, GIRK (G protein-gated inwardly rectifying potassium channel) thallium flux, FluoZin2; at 10 µM; stronger effect = higher value; submaximal glutamate (EC20) added with thallium
# Sequence of UniProt P70579 (P70579 whole entry, looked up): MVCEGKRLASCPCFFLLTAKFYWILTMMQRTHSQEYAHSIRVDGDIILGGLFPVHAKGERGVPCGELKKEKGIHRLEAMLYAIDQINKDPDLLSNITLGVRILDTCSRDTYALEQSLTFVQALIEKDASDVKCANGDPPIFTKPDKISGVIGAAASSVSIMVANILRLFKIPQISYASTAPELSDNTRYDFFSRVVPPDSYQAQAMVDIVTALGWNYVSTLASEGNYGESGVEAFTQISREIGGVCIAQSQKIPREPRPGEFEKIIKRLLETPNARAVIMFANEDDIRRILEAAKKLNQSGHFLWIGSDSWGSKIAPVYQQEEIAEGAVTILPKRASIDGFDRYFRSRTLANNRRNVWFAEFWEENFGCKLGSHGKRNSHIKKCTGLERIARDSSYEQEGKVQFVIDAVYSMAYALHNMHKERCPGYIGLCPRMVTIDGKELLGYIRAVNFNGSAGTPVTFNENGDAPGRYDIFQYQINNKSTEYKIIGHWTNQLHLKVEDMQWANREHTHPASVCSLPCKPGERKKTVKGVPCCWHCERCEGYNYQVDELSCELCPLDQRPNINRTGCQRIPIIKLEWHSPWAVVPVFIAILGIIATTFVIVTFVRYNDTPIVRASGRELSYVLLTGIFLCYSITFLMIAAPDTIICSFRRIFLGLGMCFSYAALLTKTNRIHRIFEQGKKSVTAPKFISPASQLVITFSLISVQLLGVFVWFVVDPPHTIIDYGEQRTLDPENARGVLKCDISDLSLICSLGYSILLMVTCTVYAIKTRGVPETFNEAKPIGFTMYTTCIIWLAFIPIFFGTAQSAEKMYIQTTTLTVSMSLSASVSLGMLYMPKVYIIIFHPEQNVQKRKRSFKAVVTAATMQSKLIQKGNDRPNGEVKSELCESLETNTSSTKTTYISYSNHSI
row,Structure (SMILES),z-score
1,CN1CCc2nc3ccc(Cl)cc3c(-c3ccccc3Cl)c2C1,-0.219
2,Cc1occc1C(=O)Nc1cccc(C(F)(F)F)c1,-1.96
3,NC1=NC(=Nc2ccc(Br)cc2)c2ccccc21,-0.399
4,O=c1oc(-c2cc3ccccc3o2)nc2sc3c(c12)CCCC3,-0.0681
5,O=P(O)(O)c1ccccc1OCCCCCOc1ccccc1P(=O)(O)O,-0.265
6,CCn1c2ccccc2c2nnc(SCC(N)=O)nc21,0.168
7,COc1ccc(N=Nc2nc3cc(Br)c(Br)cc3n2C)c(OC)c1,-0.125
8,COc1ccc(N2Cc3ccccc3C2=NC(=O)c2cccc([N+](=O)[O-])c2)cc1,-1.56
9,O=C(Cn1ncc(Cl)c(Cl)c1=O)NCC1CCCCC1,0.189
10,O=C(NC1=NCCS1)C1COc2ccccc2O1 (configuration not stated),0.94
11,O=S(=O)(c1ccc(F)cc1)n1ccc(-c2cnc(-c3ccccc3)s2)n1,-0.172
12,CCOCC(=O)Nc1cc(C(F)(F)F)ccc1Oc1cccc(Br)c1,-0.288
13,N#Cc1c(C(F)(F)F)cc(-c2ccc(Cl)c(Cl)c2)nc1SCCN1CCOCC1,0.851
14,O=C(COc1ccccc1)NNc1c2ccccc2nc2ccccc12,-0.159
15,Cc1ccc(C)c(N=C2CCCN2Cc2ccccc2)c1C#N,active: -3.64
16,COc1cc2c(cc1OC)C1=C(C#N)CC/C(=N\S(=O)(=O)c3ccccc3)N1CC2,0.0414
17,CC(C)CN(CC(C)C)C(=O)C12CCC(C)(C(=O)C1)C2(C)C (configuration not stated),-0.226
18,O=C(Nc1ccc(N2CCCC2)cc1)c1cccc(F)c1,0.0251
19,COCc1nnc(NC(=O)c2ccc(S(=O)(=O)N(C)c3ccccc3)cc2)o1,0.784
20,Cc1occc1C(=O)Nc1ccccc1C(=O)O,-0.185
21,O=S(=O)(c1ccc(Cl)cc1)N1CCCC1c1nc2ccccc2s1 (configuration not stated),0.0454
22,CC(C)[C@H](NC(=O)CCn1nnc2ccccc2c1=O)C(=O)O,1.37
23,O=C(Nc1nccs1)C1C2CC3OC(=O)C1C3C2 (configuration not stated),-0.0742

row,Structure (SMILES),z-score
1,CC1(C)CC(=O)C(C(=O)Cc2ccccc2[N+](=O)[O-])C(=O)C1,0.541
2,Cc1ccc(CN2CC(C(=O)Nc3cccc(S(=O)(=O)N4CCCCC4)c3)CC2=O)cc1 (configuration not stated),-0.00131
3,S=C(NCc1ccco1)N1CCN(C(c2ccccc2)c2ccccc2)CC1,-0.178
4,O=C(CN1CCN(Cc2ccc(F)cc2Cl)C1=O)NCCCN1CCOCC1,0.204
5,CC(Sc1ccc(Cl)cc1)C(=O)NCc1ccc2c(c1)OCO2 (configuration not stated),0.0378
6,O=C(Nc1ccccc1C(=O)O)c1cncc(Br)c1,-0.638
7,CC(Cl)C(=O)NC(=O)NC12CC3CC(CC(C3)C1)C2 (configuration not stated),-0.274
8,Cc1nn(CC(=O)O)c(C)c1C,0.21
9,Fc1ccc(COc2ccccc2CNCc2ccncc2)cc1,-0.0876
10,O=C(O)Cn1nc(C(F)(F)F)c2c1CCC2,0.0388
11,CCCCCn1c(CCNC(=O)CCC)nc2ccccc21,-0.563
12,CC1=NN(c2ccccc2)C(=O)C1c1ccccc1 (configuration not stated),-0.183
13,CC(C)Sc1nc(N2CCOCC2)c2c3c(sc2n1)COC(C)(C)C3,-0.0382
14,C=CCn1c(SCc2c(Cl)cccc2Cl)nnc1-c1cccnc1,-0.0853
15,CN(Cc1cc2ccccc2[nH]c1=O)S(=O)(=O)c1ccccc1,-0.137
16,O=C(NCCCN1CCOCC1)c1ccccc1,0.0111
17,COc1ccc(OC)c(C2C(C(=O)c3cc4ccccc4o3)=C(O)C(=O)N2c2cc(C)on2)c1 (configuration not stated),active: -4.54
18,CCC(c1nnc(SCC(=O)Nc2cc(Cl)ccc2C#N)n1C1CCCCC1)N(C)C (configuration not stated),0.00636
19,c1ccc(Oc2cccc(OCCn3cncn3)c2)cc1,-0.00817
20,Cc1cccc(C(=O)Nc2ccccc2N2CCN(c3ccc(F)cc3)CC2)c1,0.0619
21,Fc1ccc(/C=N/c2c(-c3ccc(F)cc3)nc3n2CCS3)cc1,-0.335
22,O=C(CCS(=O)(=O)c1ccc(Br)s1)NCc1cccs1,1.21
23,Cc1cc(C)cc(N2CC(C(=O)O)CC2=O)c1 (configuration not stated),-0.377

row,Structure (SMILES),z-score
1,CC(C)(C)NC(=O)Cn1c(=O)oc2cc(S(=O)(=O)N3CCc4ccccc43)ccc21,-0.202
2,Cc1cccc(OP(=O)(Nc2c(C)n(C)n(-c3ccccc3)c2=O)Oc2cccc(C)c2)c1,-0.0461
3,Cc1cc(C)cc(NS(=O)(=O)c2ccc(NC(=O)C3CCCCC3C(=O)O)cc2)c1 (configuration not stated),0.055
4,O=C(N/N=C/C1C(c2ccccc2)C1(Cl)Cl)c1cccc(Cl)c1 (configuration not stated),0.273
5,C/C(N)=C(/C#N)C(=O)CSc1nnc(-c2ccc(OC(F)F)cc2)o1,-0.443
6,O=C(NCC1CCCO1)c1cnn2c1NC(c1ccccc1)CC2C(F)(F)F (configuration not stated),-0.121
7,CSCCC1C(=O)OC2(C)CC(C)(C)NC(=S)N12 (configuration not stated),0.49
8,CC(C)(C)c1csc(SCC(=O)Nc2ccc(Cl)cn2)n1,-0.244
9,CN1/C(=C/C=C(/C#N)C(N)=O)C(C)(C)c2ccccc21,-0.198
10,Cc1ccnc(SCCn2c(N3CC(C)CC(C)C3)nc3c2c(=O)n(C)c(=O)n3C)n1 (configuration not stated),0.0782
11,Cc1nc2c(-c3ccc(F)cc3)c(C)nn2c(C)c1CCC(=O)N1CCN(c2ccccn2)CC1,-0.51
12,COc1ccccc1NC1=C(Cl)C(=O)N(C2CCCCC2)C1=O,-0.186
13,Cn1cc(C(=O)c2ccc(Cl)cc2Cl)cc1C(=O)O,-0.33
14,C=C(C)CC(NCc1ccco1)c1ccc(OC)cc1 (configuration not stated),0.143
15,Cc1ccc(N2CCN(C3=NC(=O)/C(=C\c4cn[nH]c4-c4ccccc4)S3)CC2)cc1,-2.16
16,COc1ccc(OCC(=O)OCCN(C)C)cc1,-0.208
17,CC(=O)NC(Cc1ccccc1)C(=O)NC1CCN(C(=O)c2ccc([N+](=O)[O-])cc2)CC1 (configuration not stated),-0.0531
18,COc1ccc(CCNC(=O)C(=O)Nc2nccs2)cc1OC,-0.272
19,CCOC(=O)c1ccc(NC(=O)COc2ccc(S(=O)(=O)N3CCCC3)cc2)cc1,-0.501
20,Cc1cc(C)nc(NS(=O)(=O)c2ccc(NC(=S)NC(=O)C3CCCC3)cc2)n1,-0.797
21,Cc1ccc(S(=O)(=O)NCCCCCC(=O)Nc2nccs2)cc1,-0.569
22,COc1cc2[nH]c(=O)n(Cc3ccc(C(=O)NCC4CCCO4)cc3)c(=O)c2cc1OC (configuration not stated),-0.461
23,CC(C)C1NC2(C(=O)c3ccccc3C2=O)C2C(=O)N(c3ccc(F)cc3)C(=O)C12 (configuration not stated),1.24

row,Structure (SMILES),z-score
1,COc1ccc(NC(=O)COC(=O)c2c(C)noc2C)c(OC)c1,0.0913
2,N#C/C(=C\c1ccc([N+](=O)[O-])cc1)c1nc(C2CC2)cs1,-0.465
3,COc1ccc(/C=C2\SC(=N)N(c3nccs3)C2=O)cc1OC,1.79
4,Cc1ccc(CN(C)C(=O)C2CCCN2C(=O)c2cccs2)o1 (configuration not stated),0.944
5,COc1c(Br)cc(Br)cc1/C=N/n1c(C)nnc1C,1.26
6,COc1ccc(NC(=O)CSc2nc(-c3ccc(C)cc3)cc(C(F)(F)F)c2C#N)cc1,-0.0722
7,CCNc1nc(Oc2ccc(=O)[nH]n2)nc(N2CCOCC2)n1,-0.182
8,CC(=O)Nc1nc(C)c(C(C)=O)s1,-0.785
9,CCOC(=O)c1c(C)n(C)c2ccc(OCC(O)CN3CCC(C)CC3)cc12 (configuration not stated),0.622
10,CNC(=O)Nc1cccc(C(F)(F)F)c1,0.321
11,CC(C)n1nc(C(=O)Oc2ccc(Cl)cc2)c2ccccc2c1=O,-0.75
12,COc1cc(C(=O)NC(=S)Nc2ccc3oc(=O)ccc3c2)cc(OC)c1OC,-0.0903
13,O=C(CN1CCOc2ccccc21)NC1CC1,0.154
14,Cc1nc2ccc(NC(=S)N3CCN(c4ccccn4)CC3)cc2nc1C,0.124
15,CN(c1cccc(NS(=O)(=O)c2cccs2)c1)S(C)(=O)=O,-0.251
16,Cc1ccccc1C1=NC(C(F)(F)F)(C(F)(F)F)c2c(n(C)c(=O)n(C)c2=O)N1,-0.116
17,Cc1ccc(C)c(NC2=NS(=O)(=O)c3ccccc32)c1,-0.652
18,Cc1cc(C)n2nc(-c3cnn(C)c3C(F)(F)F)c(Cl)c2n1,-0.113
19,CN(C)S(=O)(=O)Oc1cccc(C(=O)Nc2ccc(Cl)cc2)c1,-0.779
20,CCOC(=O)c1cc(C#N)c(Oc2ccccc2OC)nc1-c1ccccc1,-0.0696
21,COCCn1c(C)cc(C(=O)COC(=O)c2ccc[nH]c2=O)c1C,-0.085
22,Cc1ccc2c(n1)CC(C)(C)C/C2=N\O,-0.486
23,CCOC(=O)Cc1csc(NC(=O)COc2ccc3ccccc3c2)n1,-0.371

row,Structure (SMILES),z-score
1,N#Cc1ccccc1NC(=O)CC1CCCCC1,-0.0885
2,CN(CC(=O)NC1CCCc2ccccc21)S(=O)(=O)c1ccc2c(c1)c(=O)n(C)c(=O)n2C (configuration not stated),0.00391
3,COc1cc(C=O)c(Br)cc1OCc1ccc(C)cc1,-0.101
4,O=C(CSc1ccccn1)Nc1ccc(Br)cn1,-0.593
5,COC(=O)c1ccc(NC(=O)CSc2nc3ccccc3c(=O)[nH]2)cc1,-0.00634
6,O=C(Cc1cccs1)N1CCC(c2nc3c(nnn3Cc3ccccc3)c(=O)[nH]2)CC1,-0.11
7,Clc1ccccc1-c1nnn(Cc2ccc(-c3nn[nH]n3)cc2)n1,-0.648
8,COCCCNC(=O)CCc1nc2cccnc2n1Cc1ccccc1,-0.252
9,Fc1cccc(CSc2ccc(-c3ccc4c(c3)OCO4)nn2)c1,-0.151
10,Cc1cc(C)cc(C(=O)Nc2nnc(SCC(=O)N3CCCc4ccccc43)s2)c1,-0.235
11,Cc1ccc(CSCC(=O)N/N=C/c2ccc(OCC(=O)Nc3ccc(C)cc3)cc2)cc1,-0.0937
12,O=C(NC1CCN(C(=S)NCc2ccco2)CC1)C1CCCCC1,-0.0774
13,Cc1ccc(CNC(=O)CSc2nc3ccsc3c(=O)n2NC(=O)c2ccccc2)cc1,0.353
14,CC(C)CNc1nc(Oc2ccc(=O)[nH]n2)nc(N(C)C)n1,0.022
15,O=C(Cc1ccccc1)Nc1nc(=O)c2ccccc2s1,active: 5.11
16,O=C(/C=C1\NCC2c3ccccc3CCN2C1=O)c1ccccc1 (configuration not stated),0.22
17,COC(=O)c1cccc(-n2c(C)cc(C=O)c2C)c1,-0.0226
18,COc1ccc(C2=Nc3cc(C)ccc3OC2)cc1,-0.187
19,Cc1ccc(NC(=O)c2ccc(S(=O)(=O)N3CCCC3)cc2)cc1,-0.497
20,O=C(NN=C1c2ccccc2-c2ccccc21)c1ccccn1,0.564
